Assay results as given in article PMC5695791.
Substitutions are numbered along the chain they refer to. In names and notes the source's numbering stands. These are yes or no findings as the source states them, for the method shown. For some of these results: In cells and extracts the contact can be indirect. Some binding calls cover weakened binding; strength is not graded here. For some of these results: Tags and fused reporters may be left off the sequences shown.

Legend:
[1] = target: T1, endogenous signal peptide peptidase of HEK293 cells (human (endogenous in HEK293)) (UniProt Q8TCT9); assay: co-IP; fluorescent-protein-tagged partner overexpressed in HEK293 cells, normoxia or 48 h hypoxia (1% O2); endogenous SPP precipitated with rabbit anti-SPP and Protein A Sepharose at 4°C, washed with PBS; blot with anti-GFP
T1 sequence: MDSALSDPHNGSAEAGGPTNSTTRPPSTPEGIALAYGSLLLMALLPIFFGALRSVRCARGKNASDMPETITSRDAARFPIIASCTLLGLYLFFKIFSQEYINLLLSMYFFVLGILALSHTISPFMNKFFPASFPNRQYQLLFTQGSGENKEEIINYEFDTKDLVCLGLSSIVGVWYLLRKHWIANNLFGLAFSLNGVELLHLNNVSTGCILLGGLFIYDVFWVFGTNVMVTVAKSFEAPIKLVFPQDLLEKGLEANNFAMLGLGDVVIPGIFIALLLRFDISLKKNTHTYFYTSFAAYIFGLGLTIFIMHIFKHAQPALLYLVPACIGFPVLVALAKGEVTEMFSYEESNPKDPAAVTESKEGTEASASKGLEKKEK

[2] = target: T2, HA-tagged signal peptide peptidase, catalytically inactive mutant D219A (UniProt Q8TCT9); assay: co-IP; HA-SPP variant and fluorescent-protein-tagged partner co-expressed in HEK293 cells under normoxia; cell extract (50 mM TEA, 1 mM EDTA, pH 7.4) precipitated with rabbit anti-HA and Protein A Sepharose at 4°C, washed with PBS; blot with anti-GFP; IgG control-antibody gave no signal
T2 sequence: T1 sequence with D219A

[3] = target: T3, HA-tagged signal peptide peptidase, wild type (catalytically active) (UniProt Q8TCT9); assay: co-IP; YFP-HO-1-CFP co-expressed with HA-SPP in HEK293 cells; cell extracts made as described by Schrul et al.; precipitated with HA-antibody, blot with GFP-antibody
T3 sequence: T1 sequence

[4] = target: T4, HA-tagged signal peptide peptidase, wild type (catalytically active), Q8TCT9; assay: SDS-PAGE and Western blot of uncooked cell extracts; HEK293 cell extracts in SDS sample-buffer not cooked to keep SPP homodimers at 95 kDa intact; blot with anti-HA or anti-SPP; details: remark: other sources report otherwise
T4 chain: T1 sequence

[5] = target: T2, HA-tagged signal peptide peptidase, catalytically inactive mutant D219A; assay: as above
[6] = target: T5, endogenous signal peptide peptidase of HEK293 cells (human (endogenous in HEK293)), Q8TCT9; assay: as above; details: remark: other sources report otherwise
T5 chain: T1 sequence

[7] = target: T3, HA-tagged signal peptide peptidase, wild type (catalytically active); assay: co-IP; HA-SPP variant and fluorescent-protein-tagged partner co-expressed in HEK293 cells under normoxia; cell extract (50 mM TEA, 1 mM EDTA, pH 7.4) precipitated with rabbit anti-HA and Protein A Sepharose at 4°C, washed with PBS; blot with anti-GFP; IgG control-antibody gave no signal

B1: GFP-tagged wild type heme oxygenase-1 (enzyme, UniProt P09601 1-288)
chain: MERPQPDSMPQDLSEALKEATKEVHTQAENAEFMRNFQKGQVTRDGFKLVMASLYHIYVALEEEIERNKESPVFAPVYFPEELHRKAALEQDLAFWYGPRWQEVIPYTPAMQRYVKRLHEVGRTEPELLVAHAYTRYLGDLSGGQVLKKIAQKALDLPSSGEGLAFFTFPNIASATKFKQLYRSRMNSLEMTPAVRQRVIEEAKTAFLLNIQLFEELQELLTHDTKDQSPSRAPGLRQRASNKVQDSAPVETPRGKPPLNTRSQAPLLRWVLTLSFLVATVAVGLYAM
Q: What does the source list for B1?
A: binding [1]: binds; binding [2]: binds

B2: double fluorescence-tagged HO-1 (YFP-HO-1-CFP) (enzyme, UniProt P09601 1-288)
chain: B1 chain
Q: Which binding [3] does the source give for B2 here?
A: binds

B3: HA-tagged signal peptide peptidase, wild type (catalytically active), Q8TCT9 1-377 (enzyme)
chain: T1 sequence
Q: For B3, which binding [4] is on record?
A: binds

B4: HA-tagged signal peptide peptidase, catalytically inactive mutant D219A (enzyme, UniProt Q8TCT9 1-377)
chain: T1 sequence with D219A
Q: How did the binding [5] turn out when B4 was run?
A: binds

B5: endogenous signal peptide peptidase of HEK293 cells, Q8TCT9 1-377 (enzyme)
chain: T1 sequence
Q: How did the binding [6] turn out when B5 was run?
A: binds

B6: GFP-tagged HO-1 anchor mutant SF275/276AL (enzyme, UniProt P09601 1-288)
chain: B1 chain with S275A, F276L
Q: For B6, which binding [7] is on record?
A: binds weakly

B7: GFP-tagged wild type heme oxygenase-2 (enzyme, UniProt P30519 1-316)
chain: MSAEVETSEGVDESEKKNSGALEKENQMRMADLSELLKEGTKEAHDRAENTQFVKDFLKGNIKKELFKLATTALYFTYSALEEEMERNKDHPAFAPLYFPMELHRKEALTKDMEYFFGENWEEQVQCPKAAQKYVERIHYIGQNEPELLVAHAYTRYMGDLSGGQVLKKVAQRALKLPSTGEGTQFYLFENVDNAQQFKQLYRARMNALDLNMKTKERIVEEANKAFEYNMQIFNELDQAGSTLARETLEDGFPVHDGKGDMRKCPFYAAEQDKGALEGSSCPFRTAMAVLRKPSLQFILAAGVALAAGLLAWYYM
Q: What does the source list for B7?
A: binding [1]: binds; binding [2]: binds; binding [7]: binds

B8: fluorescent protein fused cytochrome P450 reductase (enzyme, UniProt P16435 1-677)
chain: MGDSHVDTSSTVSEAVAEEVSLFSMTDMILFSLIVGLLTYWFLFRKKKEEVPEFTKIQTLTSSVRESSFVEKMKKTGRNIIVFYGSQTGTAEEFANRLSKDAHRYGMRGMSADPEEYDLADLSSLPEIDNALVVFCMATYGEGDPTDNAQDFYDWLQETDVDLSGVKFAVFGLGNKTYEHFNAMGKYVDKRLEQLGAQRIFELGLGDDDGNLEEDFITWREQFWPAVCEHFGVEATGEESSIRQYELVVHTDIDAAKVYMGEMGRLKSYENQKPPFDAKNPFLAAVTTNRKLNQGTERHLMHLELDISDSKIRYESGDHVAVYPANDSALVNQLGKILGADLDVVMSLNNLDEESNKKHPFPCPTSYRTALTYYLDITNPPRTNVLYELAQYASEPSEQELLRKMASSSGEGKELYLSWVVEARRHILAILQDCPSLRPPIDHLCELLPRLQARYYSIASSSKVHPNSVHICAVVVEYETKAGRINKGVATNWLRAKEPAGENGGRALVPMFVRKSQFRLPFKATTPVIMVGPGTGVAPFIGFIQERAWLRQQGKEVGETLLYYGCRRSDEDYLYREELAQFHRDGALTQLNVAFSREQSHKVYVQHLLKQDREHLWKLIEGGAHIYVCGDARNMARDVQNTFYDIVAELGAMEHAQAVDYIKKLMTKGRYSLDVWS
Q: How did the binding [1] turn out when B8 was run?
A: binds

Q: And the binding [2]?
A: binds

Q: What about the binding [7] of the same binder?
A: binds

B9: fluorescent protein fused biliverdin reductase (enzyme, UniProt P53004 3-296)
chain: AEPERKFGVVVVGVGRAGSVRMRDLRNPHPSSAFLNLIGFVSRRELGSIDGVQQISLEDALSSQEVEVAYICSESSSHEDYIRQFLNAGKHVLVEYPMTLSLAAAQELWELAEQKGKVLHEEHVELLMEEFAFLKKEVVGKDLLKGSLLFTAGPLEEERFGFPAFSGISRLTWLVSLFGELSLVSATLEERKEDQYMKMTVCLETEKKSPLSWIEEKGPGLKRNRYLSFHFKSGSLENVPNVGVNKNIFLKDQNIFVQKLLGQFSEKELAAEKKRILHCLGLAEEIQKYCCSRK
Q: How did the binding [1] turn out when B9 was run?
A: no binding

Q: And the binding [2]?
A: no binding

Q: What about the binding [7] of the same binder?
A: no binding
